Among the data in the RNAGym collection of RNA variant scans (doi:10.7554/elife.90254) are self-cleavage values, retold here.

The source gives no read counts; variants with many changes may rest on few reads.

The chains are these.
B1: LINE1-mini (parent)
chain: GGCAGAGCUCAACACAGCGUGGCAAAGUGGCUGUGGCUAGACUGCC

In this data set the parent is B1. Kind of data set: self-cleavage, relative activity (ratio to wild type); higher = more cleavage; in vitro, sequencing; the parent is a self-cleaving ribozyme.
Consider A41C G44C C45A, for which the self-cleavage turned out to be 0.03.
In the case of G30C G33U G35C it was 0.04.
Turning to G30U U43A G44U, the self-cleavage was 0.
In the case of U32C G35C G40A it was 0.16; in that of G36A C42U C45U, 0.06.
The figure for G36C A41U G44A is 0.07.
In the case of G35U A41U G44U it was 0.07.
As for G33U G36U G44U C45A, the self-cleavage came out at 0.01.
In the case of C31G U32G U38G C42U it was 0.06; in that of U32G G40U U43C, 0.08; in that of G35U G40U G44A, 0.14.
The figure for C31A U34C G40U C42A C45G is 0.05; for C37G U38C C42G it is 0.01.
In the case of G33U U34G G40A it was 0.08; in that of C37U C42U C46U, 0.08; in that of C31G G35C C42U, 0.
For the variant C37U G40U A41U C46G, the self-cleavage came to 0.09.
For U38A A39U U43A, the self-cleavage was found to be 0.01.
The figure for C31A G33A U43C is 0.03; for A41U G44C C46A it is 0.02.
The figure for U34G G40U C46G is 0.03.
In the case of U34A A39C C46G it was 0.06.
On to G35C G36C C45U, for which the self-cleavage came to 0.03.
In the case of C31U G36A C37A, the self-cleavage was found to be 0.11.
The figure for U34A C45G C46U is 0.03.
For the variant G30U G33U C42U, the self-cleavage stood at 0.03.
The figure for U34C A39U C46U is 0.18; for C42A G44U C45U it is 0.04.
The figure for G36C A39U C46G is 0.02; for C31A A39U C45A it is 0; for C31U A39C C46A it is 0.16.
The figure for C31U A41C C42A is 0.01.
Regarding G36U G44U C46A, the self-cleavage came to 0.02.
Turning to C31U G35C G36U, the self-cleavage was 0.1.
In the case of C31U G33U C46G, the self-cleavage is 0.07.
The figure for G35C A39G C45U is 0.04; for G30U C37U C42U G44U it is 0; for C31U U34C G40C G44A it is 0.01.
In the case of C31A U34C U38C, the self-cleavage came out at 0.03.
On to U32C G33A A39C, for which the self-cleavage came out at 0.02.
The figure for G36C G44U C45U is 0.01; for G36A C37A A41C it is 0.02; for G40A G44A C46U it is 0.03.
The figure for G33U G40A A41U C45A is 0.11; for U32C U38C G40U it is 0.03.
The figure for G30A G35C G36A is 0.06; for G40C A41C C46U it is 0.06; for G33A C37U U38C it is 0.04.
Consider G30C U34G C46G, for which the self-cleavage amounted to 0.03.
The figure for G35C U38C A41U is 0.06; for G33A A39C G44C it is 0.02; for U38C G40C G44U it is 0.06.
The figure for G35U C37A C46A is 0.06; for C31A A39C C46U it is 0.04; for G33A G35U C42G C45A it is 0.05.
The figure for G30A U32C U34G A39G C46U is 0.05.
On to G36U A39C C42A, for which the self-cleavage came to 0.03.
As to G33U G36A U38C A39U, the self-cleavage came out at 0.01.
The figure for A41G C42G U43A is 0.05.
Take C31A A41U C46U: the self-cleavage stood at 0.06.
In the case of G36U A39U G40U it was 0.08; in that of G35C G36A C45A, 0.04.
The figure for G35A A41G G44U is 0.01; for U32G U34C G36C it is 0.06.
Turning to G36U G40U C45U C46U, the self-cleavage amounted to 0.06.
The figure for C37U G40U A41U C45G is 0.89; for G30U C37A A39U it is 0.1.
The figure for G33U G44A C46U is 0.15.
In the case of C37A U38A G44A it was 0.03; in that of G36U U38C G44U, 0.01.
Consider G33U G35C G44U, for which the self-cleavage was found to be 0.36.
Turning to G36C C42A G44C C45U, the self-cleavage was found to be 0.03.
The figure for C31G G35C U43C is 0.07; for U38A G40C C45U it is 0.12.
In the case of C31A U32G G40U it was 0.08; in that of U32A A41U C45A, 0.15.
The figure for G36U C45U C46A is 0.04.
Take C31U G36U A41G: the self-cleavage was found to be 0.03.
In the case of G30U C31U C37U it was 0.01; in that of C31A G35C U43A, 0.01; in that of U32G G36U C42U, 0.
In the case of U34C G36A C45U C46A it was 0.04.
The figure for G33C G35A U38G is 0.04; for G35U G44C C45U it is 0.05.
Take U32G G33C G36U C42G: the self-cleavage is 0.02.
In the case of C31U C37U C42G it was 0.02; in that of U32A G33C G35U, 0.08.
Consider G33A C37U C46U, for which the self-cleavage turned out to be 0.1.
In the case of U32G A39U C42G it was 0; in that of G35A G40A A41G, 0.04.
The figure for G30C U38A A39C is 0.08; for C31A C37A C46G it is 0.08.
As to C37G U38C G40C, the self-cleavage came to 0.14.
The figure for A39G A41G C42A is 0.11; for U34G U43G C46A it is 0.07; for U32C G44U C45A it is 0.05.
As to G36U G44A C46A, the self-cleavage was determined as 0.05.
With G35U G36A C46A, the self-cleavage was determined as 0.08.
The figure for C31U G33C C45U is 0.02; for G30C C31G G40U U43G C46U it is 0.01; for U32G C37U U38C A41C C45A it is 0.05.
Consider C31U G33A G36U, for which the self-cleavage is 0.03.
In the case of C31A U34G G36U C37A C42A it was 0.
The figure for A41U C42U C46U is 0.28; for G33A G36C C42G it is 0.03; for G35U U43G C46A it is 0.01.
The figure for C37A G40U C46U is 0.14; for G30C G40A A41U C45G it is 0.1; for G30U C45G C46A it is 0.32.
As for A41G U43C C45A, the self-cleavage was 0.06.
The figure for C37A C42G C45A C46A is 0.02.
The figure for C31U C42G U43C is 0.04; for G36U C42G C45G it is 0.
The figure for G36U C37G A41U is 0.04; for C31A G40U G44U it is 0.
Regarding C31A A39G A41C, the self-cleavage was 0.03.
As for G30U G35C C37G, the self-cleavage came out at 0.11.
